US20250277029A1, “CANNABINOID TYPE 1 RECEPTOR BINDING PROTEINS AND USES THEREOF” (AMGEN INC., priority 2022, published 2025)
Positions count from the first letter of the chain named.

T1: XCR1-SMALP (Homo sapiens, UniProt P46094)
T1 sequence (P46094 1-333): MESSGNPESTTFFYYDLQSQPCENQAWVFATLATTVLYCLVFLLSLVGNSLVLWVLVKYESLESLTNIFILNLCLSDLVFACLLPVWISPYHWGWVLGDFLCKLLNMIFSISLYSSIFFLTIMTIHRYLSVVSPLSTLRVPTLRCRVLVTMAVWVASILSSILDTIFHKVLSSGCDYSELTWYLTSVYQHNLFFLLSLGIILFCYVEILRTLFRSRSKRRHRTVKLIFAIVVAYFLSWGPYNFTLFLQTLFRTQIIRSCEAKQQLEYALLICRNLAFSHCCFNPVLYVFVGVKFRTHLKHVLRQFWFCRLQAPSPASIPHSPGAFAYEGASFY

B1: LIBC674024-1: further cognate affinity-matured variant (antibody, V domains shown)
VH: QVQLQESGPGLVKPSQTLSLTCTVSGGSIRRGGDYWSWIRQHPGKGLEWIGHVYQTGSTKYNPSFKNRVRISVNTYKNQFSLKLSSVTAADTAVYYCARGYDVSGYSYYYYGLDVWGQGTTVTVSS
VL: [sequence of about 100 residues omitted]YCMQSLQTPRTFGQGTKVEIKR
B2: LIBC673948-1: further cognate affinity-matured variant (antibody, V domains shown)
VH: B1 VH with V53I, Q55Y, F65L
VL: [sequence of about 100 residues omitted]YCMQSLQTPRTFGQGTKVEIKR
B3: LIBC674235-1: further cognate affinity-matured variant (antibody, V domains shown)
VH: B1 VH with Q55Y, T56A, K60T, F65L, N67S
VL: [sequence of about 100 residues omitted]YCMQSLQTPRTFGQGTKVEIKR
B4: LIBC674002-1: further cognate affinity-matured variant (antibody, V domains shown)
VH: B1 VH with V53I, Q55Y, T56K, K60E, F65L, K66R, N67G
VL: [sequence of about 100 residues omitted]YCMQSLQTPRTFGQGTKVEIKR
B5: LIBC674257-1: further cognate affinity-matured variant (antibody, V domains shown)
VH: B1 VH with V53I, Q55Y, S58Q, F65L, K66R, N67G, V103I
VL: [sequence of about 100 residues omitted]YCMQSLQTPRTFGQGTKVEIKR
B6: LIBC529593-1 (Fab) (antibody, V domains shown)
VH: QVQLQESGPGLVKPSQTLSLTCTVSGGSIRRGGDYWSWIRQHPGKGLEWIGHIYYSGSTNYNPSLRSRVRISVDTSKNQFSLKLSSVTAADTAVYYCARDYDILTGYSYYYYGLDVWGQGTTVTVSS
VL: [sequence of about 100 residues omitted]YCMQSLQTPRTFGQGTKVEIKR
B7: LIBC673965-1: further cognate affinity-matured variant (antibody, V domains shown)
VH: B1 VH with Q55Y, S58Q, K60A, F65L, K66R, N67G, V103T
VL: [sequence of about 100 residues omitted]YCMQSLQTPRTFGQGTKVEIKR
B8: LIBC674216-1: further cognate affinity-matured variant (antibody, V domains shown)
VH: B1 VH with V53I, Q55Y, S58Q, K60A, F65L, K66R, V103I
VL: [sequence of about 100 residues omitted]YCMQSLQTPRTFGQGTKVEIKR
B9: LIBC674153-1: further cognate affinity-matured variant (antibody, V domains shown)
VH: B1 VH with Q55Y, K60A, K66R, N67G, V103T
VL: [sequence of about 100 residues omitted]YCMQSLQTPRTFGQGTKVEIKR
B10: LIBC674214-1: further cognate affinity-matured variant (antibody, V domains shown)
VH: B1 VH with Q55Y, T56E, K66R, N67G
VL: [sequence of about 100 residues omitted]YCMQSLQTPRTFGQGTKVEIKR
B11: LIBC674035-1: further cognate affinity-matured variant (antibody, V domains shown)
VH: B1 VH with V53I, Q55Y, T56A, S58Q, V103I
VL: [sequence of about 100 residues omitted]YCMQSLQTPRTFGQGTKVEIKR
B12: LIBC674043-1: further cognate affinity-matured variant (antibody, V domains shown)
VH: B1 VH with V53I, Q55Y, S58Q, K60T, S64N, N67G, V103A, L113M, S126R
VL: [sequence of about 100 residues omitted]YCMQSLQTPRTFGQGTKVEIKR
B13: LIBC673972-1: further cognate affinity-matured variant (antibody, V domains shown)
VH: B1 VH with V53I, Q55Y, S58Q, K60A, S64N, F65L, K66R, V103A
VL: [sequence of about 100 residues omitted]YCMQSLQTPRTFGQGTKVEIKR
B14: LIBC674276-1: further cognate affinity-matured variant (antibody, V domains shown)
VH: B1 VH with Q55Y, K60T, S64N, N67G, V103A
VL: [sequence of about 100 residues omitted]YCMQSLQTPRTFGQGTKVEIKR
B15: LIBC673982-1: further cognate affinity-matured variant (antibody, V domains shown)
VH: B1 VH with V53I, Q55Y, K60T, K66R, N67G, G100D, V103I, L113M
VL: [sequence of about 100 residues omitted]YCRQSVALPRTFGQGTKVEIKR
B16: LIBC524049-1: cognate affinity-matured 10D10 variant; HV SEQ ID NO: 116, LV SEQ ID NO: 115 (antibody, V domains shown)
VH: B6 VH with S56T, N60A, R66K, V69A, R70T, D74N, S76Y, L114M
VL: [sequence of about 100 residues omitted]YCRQARTLPRTFGQGTKVEIKR

These molecules were tested against T1, XCR1-SMALP (assay: Yeast-display non-specific binding to irrelevant XCR1-SMALP). Conditions: fold change compared to LIBC523797-1(Fab), after background subtraction.
Source text: All eighteen cognate variants met the stringent binding improvement threshold against huCB1I-GFP-SMALP and had minimal binding to irrelevant XCR1-SMALP and empty-ND (Table 32). […] For LIBC674043-1 and LIBC674200-1, VH R149S and VL G76D germline reversion mutations were also included in the panel of IgG1 SEFL2 mAbs produced for functional testing.

Row | Molecule | 50 nM XCR1 SMALP, relative binding fold change
1 | B1 | 0.86
2 | B2 | 0.88
3 | B3 | 0.68
4 | B4 | 0.91
5 | B5 | 0.77
6 | B6 | 1.50
7 | B7 | 0.74
8 | B8 | 0.52
9 | B9 | 0.68
10 | B10 | 0.68
11 | B11 | 0.91
12 | B12 | 0.62
13 | B13 | 0.80
14 | B14 | 0.54
15 | B15 | 0.79

Each molecule was assayed on CB1-nanodisc (assay: Octet affinity assay with CB1-nanodisc). Conditions: 1:1 Langmuir model.
Format: binding, human

Row | Molecule | Octet (nanodisc) k off | Octet (nanodisc) k on
16 | B16 | 0.000904 s⁻¹ | 59000 M⁻¹ s⁻¹
